PubChem BioAssay AID686978 (National Center for Advancing Translational Sciences (NCATS), 2013)
“And” between values parts separate entries of the source, which are not always exact repeats. Equal values may be shown once. The whole screen tested about 420,000 compounds, of which about 64,000 (15%) were called active. Inconclusive means that the source gave no clear call. Such entries were picked first, then a sample of the others. Calls come from the whole dose curve; as a rule, active = well fitted inhibition curve with a large enough effect; inconclusive = small, poorly fitted or top-dose-only effect; inactive = flat fitted curve, though single readings scatter. Potencies of inconclusive entries are left out as doubtful fits.

Test: qHTS for Inhibitors of human tyrosyl-DNA phosphodiesterase 1 (TDP1): qHTS in cells in absence of CPT; note: nearly all actives have a fitted effect of over 55% in size
Settings: DT40 Tdp1-/- hTDP1 cells, no CPT, ATP luminescence, 48 h; activity change, negative = growth inhibition: at 46.2 µM (top of the series) unless noted
Summary of the method: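 Growth of hTDP1-complemented DT40 Tdp1-knockout cells is measured by ATP luminescence after at least 48 hr compound exposure at 37 °C, with DMSO substituting for the 20 nM CPT used in the parallel screen.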
% is set by controls: 0 for no effect and ±100 for the full control effect; potency is the fitted concentration of half-maximal effect; tags give direction and shape of the fitted curve.

SMILES | Potency | activity change, negative = growth inhibition
Cc1ccnc(-n2c(C)nc3ccccc3c2=O)c1 | inconclusive [inhibitor, single point] | 
O=C(NCCCN1CC1)Nc1cccc2ccccc12 | active: 7.31 µM | 
Cc1cccc(NC(=O)c2ncn3c2C(=O)NC[C@@H]3C)c1 | inconclusive [inhibitor, single point] | 
O=C(Oc1ccc(Cl)c2ccccc12)N1CCCCC1 | inconclusive [inhibitor, single point] | 
C[C@@]1(CO)[C@H](O)CC[C@@]2(C)[C@H]1CC[C@H]1C[C@@H]3C[C@@]12CC[C@]3(O)CO | active: 0.131 µM | 
COc1ccc(C2c3c(nc(C)[nH]c3=O)Oc3c2c(=O)oc2ccccc32)cc1 (configuration not stated) | inactive | 
CN1C(=O)N(C)C(=O)C2(Cc3cc(NC(=O)c4ccc(F)cc4)ccc3N3CCCC32)C1=O (configuration not stated) | inconclusive [inhibitor, single point] | 
CCOc1ccc(S(=O)(=O)N(CC(=O)NCc2ccccc2OC)c2ccccc2)cc1 | active: 16.4 µM | 
O=C(c1ccc2c(c1)OCO2)C1CCCN(Cc2c(F)cccc2Cl)C1 (configuration not stated) | inconclusive [inhibitor, single point] | 
CC1=C(C)CN2CC(C#N)=C(N)C2C1 (configuration not stated) | inconclusive [inhibitor, partial curve] | 
S=C(NCCc1ccccc1)N1Cc2cc(-c3ccccc3)ccc2-n2nncc2C1 | inconclusive [inhibitor, single point] | 
C[C@H]1CN([C@@H](C)CO)C(=O)c2cc(-c3cccnc3)cnc2O[C@H]1CN(C)Cc1ccc(Oc2ccccc2)cc1 | inconclusive [inhibitor, single point] | 
O=C(O)C1=CC2c3ccccc3C1c1ccccc12 | inactive | 
Cc1cccc(NC(=O)c2ccc(S(=O)(=O)N(C)CC3CCCO3)cc2)c1C (configuration not stated) | inconclusive [inhibitor, single point] | 
C[C@]12C=CC(=O)C=C1CC[C@@H]1C2=CC[C@]2(C)[C@@H](C(=O)CN3CCN(c4cc(N5CCCC5)nc(N5CCCC5)n4)CC3)CC[C@@H]12 | active: 13 µM | 
O=C(C1CCC(=O)N1C1CCCCC1)N1CCC2(CC1)OCCO2 (configuration not stated) | inactive | 
N#Cc1ccccc1Cn1cc(C(=O)C2CC2)c2ccccc21 | inconclusive [inhibitor, single point] | 
CCCCNC(=O)c1c(N)n(Cc2ccc3c(c2)OCO3)c2nc3ccccc3nc12 | inconclusive [inhibitor, single point] | 
CCCOP(=O)(OCCC)C(NC(=O)c1ccccc1)=C(Cl)Cl | inactive | 
Cc1[nH]c2ccccc2c1CCNCc1cccnc1 | inactive | 
c1ccc(CC(NCc2ccco2)c2ccccc2)cc1 (configuration not stated) | inconclusive [inhibitor, full curve] | 
Cc1ccc(C(=O)N[C@@H](C)CN2C3=NC[C@H](Cc4ccccc4)N3C[C@H]2Cc2ccc(O)cc2)cc1Br | active: 16.4 µM | 
Cc1c2cnn(CC(=O)N3CCC4(CC3)OCCO4)c(=O)c2c(C)n1Cc1ccc(F)cc1 | inconclusive [inhibitor, partial curve] | 
CCC1(O)CCC2C3CCC4=CC(=O)CCC4C3CCC21CC (configuration not stated) | active: 20.6 µM | 

SMILES | Potency | activity change, negative = growth inhibition
CC/C(=N\Nc1cccc2ccccc12)c1c(O)[nH]c(=O)[nH]c1=O | active: 5.8 µM | 
CN1CCc2nc3sc(C(=O)NC(C)(C)C)c(N)c3cc2C1 | inactive | 
CCOc1ccc(C(=O)OC2CC3CCC(C2)N3C)cc1 (configuration not stated) | inconclusive [inhibitor, single point] | 
CCCCN(C(C)=O)c1ccc2c(c1)C1CC2CCN1Cc1ccccc1 (configuration not stated) | inconclusive [inhibitor, single point] | 
c1ccc(P(c2ccccc2)c2ccccn2)cc1 | active: 5.17 µM | 
C=CCN=C(SCC(=O)c1ccc(Cl)cc1)c1c(O)n(C)c(=O)n(C)c1=O | inconclusive [inhibitor, single point] | 
COc1cc2c(c(OC)c1OC)-c1ccc(O)c(=O)cc1[C@@H](NC(C)=O)CC2 | active: 5.96 µM and active: 6.51 µM | 
C=C[C@H](Cc1ccccc1)N(Cc1ccccc1)S(=O)(=O)N(Cc1ccccc1)[C@H](C=C)Cc1ccccc1 | active: 13 µM | 
CC(C)CCC1(CCc2ccncc2)C(=O)NC(=O)NC1=O | inconclusive [inhibitor, partial curve, poor fit] | 
Cc1ccccc1NC(=O)CCl | active: 23.1 µM | 
CC(C)CCNc1nnnc2c1sc1nc(N3CCOCC3)c3c(c12)CC(C)(C)SC3 | active: 18.4 µM | 
O=c1[nH]c2ccccc2n1C1CCN(C(c2ccccc2OC(F)(F)F)c2nnnn2Cc2ccccc2)CC1 (configuration not stated) | active: 10.3 µM | 
C#C[C@]1(O)C=C[C@H]2[C@@H]3CCC4=CC(=O)CC[C@@H]4[C@H]3CC[C@@]21CC | active: 15 µM | 
CCCCn1c(=O)c(C(=O)Nc2ncccc2C)c(O)c2ccccc21 | inconclusive [inhibitor, single point] | 
O=C(N/N=C/c1cccnc1)c1ccc(NC(=O)C(c2ccccc2)c2ccccc2)cc1 | active: 11.6 µM | 
Cc1cccc(C)c1-n1nnnc1C(c1cc2ccccc2o1)N1CCC(n2c(=O)[nH]c3ccccc32)CC1 (configuration not stated) | active: 1.3 µM | 
Cc1ccc(NC(=O)c2cn(CCC#N)nc2-c2ccc3c(c2)OCCO3)c([N+](=O)[O-])c1 | active: 6.51 µM | 
CCc1ccccc1Nc1nn2c(=O)c3ccc(C(=O)Nc4cc(C)cc(C)c4)cc3nc2s1 | active: 8.2 µM | 
O=P1(c2ccccc2)CC=CC1 | inactive | 
O=C1NC(=S)NC(=O)C1=Cc1c(Cl)cccc1Cl | active: 16.4 µM | 
Cc1cc(C)cc(NC(=O)CN2C(=O)CN=C(c3ccccc3)c3cc(Cl)ccc32)c1 | inconclusive [inhibitor, single point] | 
CCCOP(=O)(OCCC)C1(Nc2ccc(C)cc2)CCCCC1 | inconclusive [inhibitor, single point] | 
CN1CCCC(=C(c2cccs2)c2cccs2)C1 | inconclusive [inhibitor, partial curve] | 
N#CC(C#N)=Cc1ccc(C=C(C#N)C#N)cc1 | active: 4.61 µM | 

SMILES | Potency | activity change, negative = growth inhibition
O=C1CCCC2[C@@H]3CCCN4CCC[C@@H](CN12)C34 (some centres not stated) | inactive | 
COc1ccccc1N1CCN(Cc2cccc(Br)c2)CC1 | inconclusive [inhibitor, single point] | 
O=C1NCN(c2ccccc2)C12CCN(C(c1nnnn1C1CCCC1)C1CC1)CC2 (configuration not stated) | inconclusive [inhibitor, single point] | 
CN(C)c1cc(N)c2c(n1)CCC2 (tested in a mixture with another compound) | inactive | 
COC(=O)C1=C(c2c(C)noc2C)C[C@@H]2CC[C@H]1N2C(=O)NC1CCCCC1 | inactive | 
CN(C)C(=O)Oc1ccc(-c2cn3cc(Cl)ccc3n2)cc1 | inconclusive [inhibitor, partial curve] | 
CCOC(=O)C(C)Oc1cc(C)cc2oc(=O)c3c(c12)CCCC3 (configuration not stated) | inactive | 
Cc1c(Oc2cc(NN3CCCCC3)c([N+](=O)[O-])cc2[N+](=O)[O-])cccc1[N+](=O)[O-] | inactive | 
CCC(=O)C(CCN1CCOCC1)(c1ccccc1)c1ccccc1 | inconclusive [inhibitor, single point] | 
CC/C(=N\NC(=O)c1ccccc1Cl)c1c(O)n(C2CCCCC2)c(=O)[nH]c1=O | inactive | 
CC1CCC/C=C/C2CC(O)CC2C(O)/C=C/C(=O)O1 (configuration not stated) | active: 0.366 µM | 
COc1cc2c(cc1-c1cc3cc4ccoc4cc3oc1=O)OCO2 | inactive | 
CCCCn1nnnc1C(c1cccc2ccccc12)N1CCC2(CC1)C(=O)NCN2c1ccccc1 (configuration not stated) | inconclusive [inhibitor, single point] | 
CCCCOP(=O)(OCCCC)C(O)c1ccc(Br)cc1 (configuration not stated) | active: 18.4 µM | 
CCCC[C@@H](C)[C@@H](OC(=O)C[C@@H](CC(=O)O)C(=O)O)[C@H](C[C@@H](C)C[C@H](O)CCCC[C@@H](O)C[C@H](O)[C@H](C)N)OC(=O)C[C@H](CC(=O)O)C(=O)O | inconclusive [inhibitor, single point] | 
CSc1ncc(CN2CCCC(C(=O)c3sccc3C)C2)cn1 (configuration not stated) | inconclusive [inhibitor, single point] | 
CC1N=C(c2ccccc2)c2cc(Br)ccc2NC1=O (configuration not stated) | active: 18.4 µM | 
CCCC(C)C1(CC)C(=O)NC(=Nc2ccc(F)cc2)NC1=O (configuration not stated) | inconclusive [inhibitor, single point] | 
COC(=O)C1=C(c2ccc(F)cc2OCc2ccccc2)C[C@@H]2CC[C@H]1N2C(=O)NCc1ccccc1Cl | inconclusive [inhibitor, single point] | 
CCN(CC)C(=O)c1ccc(NC(=O)CCCSc2ccccc2)cc1 | inconclusive [inhibitor, partial curve, poor fit] | 
Brc1ccc(CN2CCNCC2)s1 | inconclusive [inhibitor, single point] | 
O=c1[nH]c2ccccc2n1C1CCN(C(c2ccnc3ccccc23)c2nnnn2Cc2ccccc2)CC1 (configuration not stated) | inconclusive [inhibitor, partial curve] | 
CCn1cc(CN2CCCC(C(=O)c3sccc3C)C2)cn1 (configuration not stated) |  | inconclusive: -30.9% [inhibitor]
CC(=O)OC1CC(OC2C(O)CC(OC3C(O)CC(OC4CCC5(C)C(CCC6C5CC(O)C5(C)C(C7=CC(=O)OC7)CCC65O)C4)OC3C)OC2C)OC(C)C1OC1OC(CO)C(O)C(O)C1O (configuration not stated) | active: 631 nM and active: 651 nM | 
